Experimental data reported in PubChem BioAssay AID2675 (National Center for Advancing Translational Sciences (NCATS), 2010).
Hit rate of the full screen: of about 280,000 compounds, about 100 (0.036%) were called active. The inconclusive results got no clear call from the source; some entries with a clear call stand among them for comparison. Calls come from the whole dose curve; as a rule, active = well fitted inhibition curve with a large enough effect in the signal ratio, with a control signal flat (not every such curve was filed as active); inconclusive = small, poorly fitted or top-dose-only effect, or effect the other way, or a change in a side signal; inactive = no such curve, though single readings can be large or run the other way; the % refers to the signal ratio. Potencies beside an inconclusive call are fits to weak or partial responses and may not hold up. A note “side channel” means that the fit belongs to a control or component signal, not to the main read-out.

target: Muscleblind-like protein 1 (Homo sapiens) (UniProt Q9NR56); test: qHTS Assay for Inhibitors of MBNL1-poly(CUG) RNA binding; details: TR-FRET MBNL1-His/biotin-(CUG)12 binding, 665/545 ratio; activity change, negative = inhibition: at 57.5 µM (top of the series)
Summary of the method: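 Compounds (final 92 nM to 58 uM) are added to His-tagged MBNL1 and biotin-(CUG)12, then terbium anti-His antibody and streptavidin-XL665 (5 nM final). After 60 min at room temperature, the 665/545 nm ratio is read.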
% is set by controls: 0 for no effect and ±100 for the full control effect; potency is the fitted concentration of half-maximal effect; tags give direction and shape of the fitted curve or compound fluorescence and quenching.

Chain of UniProt Q9NR56 (Q9NR56 whole entry, looked up): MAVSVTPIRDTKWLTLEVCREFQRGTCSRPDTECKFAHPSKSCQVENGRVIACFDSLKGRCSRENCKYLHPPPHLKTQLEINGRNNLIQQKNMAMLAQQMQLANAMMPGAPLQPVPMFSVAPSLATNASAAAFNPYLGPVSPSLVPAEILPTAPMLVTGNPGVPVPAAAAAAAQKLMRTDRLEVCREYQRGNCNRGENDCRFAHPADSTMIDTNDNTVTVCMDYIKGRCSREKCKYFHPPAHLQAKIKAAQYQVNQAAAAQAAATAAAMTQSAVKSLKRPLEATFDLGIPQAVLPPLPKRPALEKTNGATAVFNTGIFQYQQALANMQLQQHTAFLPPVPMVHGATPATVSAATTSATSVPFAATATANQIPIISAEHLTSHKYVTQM

Compound | Potency | activity change, negative = inhibition
COCc1cc(C)c2c(N)c(C#N)sc2n1 | inconclusive: 22.4 µM [quencher, side channel, single point] | 
CS/C(N)=N/N=C/c1cc(C)ccc1O |  | inactive: 1.91%
CNC(=S)Nc1ccc(-c2nc3ccc(C)cc3s2)cc1 |  | inactive: 19.7%
COc1ccccc1C(=O)Nc1ccc2c(c1)nc1n2CCN(C2CCCCC2)C1 | inconclusive: 12.6 µM [quencher, side channel, partial curve] | 
CN(C)C(=O)N1CCC(C(=O)NCC2CCCO2)CC1 (stereo not drawn) | inconclusive: 0.794 µM [quencher, side channel, single point] | 
CCOc1ccc(NS(=O)(=O)c2ccc3c(c2)N(C(C)=O)CC3)cc1 |  | inactive: -2.21%
COc1ccc(-n2nnnc2SCC(=O)NNC(=O)c2ccc([N+](=O)[O-])cc2)cc1 | inconclusive: 11.2 µM [activator, partial curve] | 
O=C(NCCO)C(=O)c1c(-c2ccc(Cl)cc2)cc2ccccn12 | inconclusive: 44.7 µM [quencher, side channel, partial curve, poor fit] | 
Cn1c(C(=O)N2CCN(C(=O)c3ccco3)CC2)cc2c(=O)n3ccccc3nc21 | inconclusive: 14.1 µM [quencher, side channel, partial curve] | 
CC(C)NC(=O)c1noc2cc([N+](=O)[O-])ccc12 | inconclusive: 11.2 µM [quencher, side channel, partial curve] | 
O=C(/C=C/Nc1ccccc1C(F)(F)F)c1ccco1 | inconclusive: 14.1 µM [quencher, side channel, partial curve] | 
CCOc1ccc(C(=O)Nc2cc(C)ccn2)cc1 | inconclusive: 7.08 µM [fluorescent, side channel, single point] | 
O=C(c1cnn2c(C(F)(F)F)cc(-c3ccc4c(c3)OCO4)nc12)N1CCCC1 | inconclusive: 3.55 µM [quencher, side channel, single point] | 
COc1ccc(CCNC(=O)C2CC(=O)N(c3ccc(Br)cc3)C2)cc1OC (stereo not drawn) |  | inactive: -7%
COCCNC(=S)N/N=C/c1c2ccccc2cc2ccccc12 | inconclusive: 20 µM [quencher, side channel, partial curve] | 
Cc1ccc(C(=O)NC2(O)C(=O)c3ccccc3C2=O)cc1C | inconclusive: 12.6 µM [quencher, side channel, partial curve] | 
CC(C)(C)c1ccc(COC(=O)Nc2ccc(F)cc2)cc1 | inconclusive: 79.4 µM [inhibitor, single point] | 
Cc1ccc2c(N)c(C(=O)N(c3ccccc3)c3ccccc3)sc2n1 | inconclusive: 39.8 µM [quencher, side channel, single point] | 
